The results in this text go back to paper PMC4336329 (PLoS ONE, 2015).

Hit rate of the full screen: of about 310,000 compounds, about 14,000 (4.5%) showed an effect of 50% or more. The effect is printed as a negative number. This is one part of the list.
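Further: peak tail current of the secondary pulse compared with the same well before compound.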

In the test the target is human ether-à-go-go-related gene (hERG) potassium channel (human, UniProt Q12809). As to the kind of experiment: primary screen, population patch clamp on CHO cells stably expressing hERG.
Chain of human ether-à-go-go-related gene (hERG) potassium channel (Q12809 whole entry, looked up): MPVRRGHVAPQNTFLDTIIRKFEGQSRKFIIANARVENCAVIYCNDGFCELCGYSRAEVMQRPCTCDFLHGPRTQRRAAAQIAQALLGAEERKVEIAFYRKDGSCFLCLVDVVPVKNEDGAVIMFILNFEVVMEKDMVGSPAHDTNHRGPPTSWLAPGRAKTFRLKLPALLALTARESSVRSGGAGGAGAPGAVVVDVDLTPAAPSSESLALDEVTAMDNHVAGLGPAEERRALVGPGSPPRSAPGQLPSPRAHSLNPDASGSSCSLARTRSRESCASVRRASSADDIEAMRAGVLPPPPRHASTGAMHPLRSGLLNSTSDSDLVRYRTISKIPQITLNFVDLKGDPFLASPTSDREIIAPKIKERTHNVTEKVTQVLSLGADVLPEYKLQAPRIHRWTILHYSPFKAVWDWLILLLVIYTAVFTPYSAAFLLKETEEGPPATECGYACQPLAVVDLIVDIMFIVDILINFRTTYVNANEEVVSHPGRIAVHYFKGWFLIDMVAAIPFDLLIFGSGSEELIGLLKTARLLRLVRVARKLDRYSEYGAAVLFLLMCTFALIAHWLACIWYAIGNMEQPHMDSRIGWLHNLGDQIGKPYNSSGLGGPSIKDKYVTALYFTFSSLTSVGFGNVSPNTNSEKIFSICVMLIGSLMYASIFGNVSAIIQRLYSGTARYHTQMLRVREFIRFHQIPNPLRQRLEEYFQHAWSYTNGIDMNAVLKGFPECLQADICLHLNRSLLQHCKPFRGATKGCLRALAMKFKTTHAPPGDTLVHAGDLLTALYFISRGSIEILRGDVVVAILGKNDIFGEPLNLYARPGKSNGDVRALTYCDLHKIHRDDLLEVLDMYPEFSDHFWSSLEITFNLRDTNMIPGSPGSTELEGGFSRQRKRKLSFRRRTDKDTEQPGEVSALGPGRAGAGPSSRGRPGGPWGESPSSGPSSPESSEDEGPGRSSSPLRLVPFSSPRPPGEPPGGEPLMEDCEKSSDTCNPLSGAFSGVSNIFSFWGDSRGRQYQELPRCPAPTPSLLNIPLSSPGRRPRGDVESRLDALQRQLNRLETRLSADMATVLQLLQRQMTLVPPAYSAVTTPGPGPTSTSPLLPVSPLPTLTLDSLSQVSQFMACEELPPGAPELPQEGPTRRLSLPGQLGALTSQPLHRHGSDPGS
Consider `COc1cc(CNCCCN2CCOCC2)ccc1OCC(=O)NC(C)(C)C.Cl`, for which the “hERG current change (%, negative = inhibition) at 10uM” value is 21%. The same measure for `N=c1c2c(-c3ccccc3)c(-c3ccccc3)n(Cc3ccccc3)c2ncn1CCO`: -37.6%; for `O=C(OCC(=O)N1CCN(C(=O)COC(=O)c2ccncc2)CC1)c1ccncc1`: 6.74%; for `Cc1c(O)ccc(-c2[nH]ncc2-c2nc3ccccc3s2)c1O`: 8.96%. The same measure for `COP(C)(=O)c1c(C)nn(-c2ccccc2)c1C` (centres unmarked): 8.29%.

In the case of `CN(C)C(/C=C/Nc1ccc(F)cc1F)=C(C#N)C#N`, the “hERG current change (%, negative = inhibition) at 10uM” value came to 5.04%. Regarding `C/C(=N\NC(=O)CN(c1ccccc1Br)S(C)(=O)=O)c1ccc2c(c1)OCCO2`, the “hERG current change (%, negative = inhibition) at 10uM” value is -18.7%. On to `Cc1cccc(NC(=O)N2CCC(n3nnc4cc(C)ccc43)CC2)c1`, for which the “hERG current change (%, negative = inhibition) at 10uM” value is on record as -62.9%.

Consider `O=[N+]([O-])c1ccc(N2CCN(c3nc(-c4ccc(Cl)cc4)cs3)CC2)cc1`, for which the “hERG current change (%, negative = inhibition) at 10uM” value was 1.29%. Regarding `Cn1c(=NC(=O)CS(=O)(=O)c2ccccc2)sc2ccccc21`, the “hERG current change (%, negative = inhibition) at 10uM” value worked out at 15.8%. `CCn1ncc(CN2CCC(Oc3cc(C(=O)NC4CC4)ccc3OC)CC2)c1C`: the “hERG current change (%, negative = inhibition) at 10uM” value is recorded as -21.5%.

For `COC1(OC)N=C(N)C2(C#N)C(c3cccc(Oc4ccccc4)c3)C12C#N` (centres unmarked), the “hERG current change (%, negative = inhibition) at 10uM” value is on record as -2.83%.

Turning to `O=C(Cn1cnc2cc([N+](=O)[O-])ccc2c1=O)NCc1ccc(Cl)cc1`, the “hERG current change (%, negative = inhibition) at 10uM” value is reported as -19.2%.

Turning to `COc1ccc(-c2csc(NC(=O)CN3C(=O)C4CCCCC4C3=O)n2)cc1OC` (centres unmarked), the “hERG current change (%, negative = inhibition) at 10uM” value was -26.8%. In the case of `O=S(=O)(Cc1ccccc1)NCCc1cccc(Cl)c1` it was -5.57%; in that of `COc1ccccc1OCCNC(=O)c1cccc(S(=O)(=O)NCc2ccccc2)c1`, -35%; in that of `Cc1onc(-c2ccccc2)c1C(=O)N=C(N)c1ccc(C(F)(F)F)cc1`, 9.84%.

For the molecule `COc1cc(C(=O)NCc2cccc3ccccc23)cc(Cl)c1OC`, the “hERG current change (%, negative = inhibition) at 10uM” value is given as 12.6%. In the case of `Nc1cc(C(Cl)=C(Cl)Cl)c(S(N)(=O)=O)cc1S(N)(=O)=O` it was 16.8%.

`CC(=O)N1CCCN(C(=O)c2ccc3nc(Cc4ccccc4F)oc3c2)CC1`: the “hERG current change (%, negative = inhibition) at 10uM” value amounted to 7.19%.

For the molecule `CCOc1ccccc1NC(=O)C1CCN(S(=O)(=O)c2c(C)noc2C)CC1`, the “hERG current change (%, negative = inhibition) at 10uM” value was determined as 20%. Take `COc1ccc(C(=O)N/C(=C\c2cn(C)c3ccccc23)C(=O)NCCCn2ccnc2)cc1`: the “hERG current change (%, negative = inhibition) at 10uM” value is 26.3%. The same measure for `O=Cc1c(Sc2ccccc2)nc2ccccn2c1=O`: -0.892%.
